# The other results are listed elsewhere or left out.
# System: PfSIP2 AP2 domain 1 (GST-tagged)
# Assay: gcPBM binding intensity (ln(normalized median fluorescence intensity)); higher = stronger DNA binding
# Method in brief: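 The binding buffer was 1× PBS containing 1% milk, 0.2 mg/ml BSA, 0.5% salmon testes DNA and 0.03% Triton X-100. In it, GST-tagged P. falciparum DNA-binding domains expressed in E. coli were applied for 1 h to an Agilent 4 × 180k array of primer-extended double-stranded 36-bp intergenic genomic probes plus negative controls. Binding intensity, read with Alexa488 anti-GST antibody and a 488 nm scan, is the highest Masliner-normalised natural-log median intensity across replicate spots of either probe orientation.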
row,Sequence,gcPBM binding intensity (ln)
1,TTTTCAATTTTTTATGAACACACAAAAAAAAAAAAA [CACACA_site8808],6.98
2,ATTTTTTTCCACTAGTGTACAAATTTTACATTGTGT [XGTACX_site5023],7.19
3,ACTAATGTAAAAGTTTGTACATATATTGAGAATTAT [XGTACX_site7439],7.02
4,CTATAATATTAGTGCACACACAAAAATGTACTAAAC [CACACA_site6442],11.3
5,AAGAAAAAAACAAAAAAAAAAAAAAAAATTCTTATT [TGCATGCA_negctrl_site504],6.63
6,TAAAAAAAAACAGAAACACACATTATTCATATAGAT [CACACA_site7052],6.67
7,GTTATAAATTTTTTTTTTTTTTTTTTTTTTTTTTTT [CACACA_negctrl_site848],8.65
8,AAAAGCACCGTTCGTTGTACACTGAAACACTTTTGT [XGTACX_site199],7.7
9,ATAAAATAAAAGGAATGTACTTTTTTTATTGTAATT [XGTACX_site4372],7.03
10,AACAAATTGAAACAATAATTGGAAAAAAAAAAAAAA [CACACA_negctrl_site1145],6.84
11,AACAAATACGGACACACACACACACTAGAAAAAAAA [CACACA_site4442],7.43
12,GTAGACTGAAACCACACACACATATATATATATATT [CACACA_site605],7.3
13,TAATATTTCGCACTGTGTACTGAAATATTTATATCG [XGTACX_site516],7.5
14,ATAATAAGACGATAAGGTACACAAAATGTTAATATA [XGTACX_site6984],6.81
15,AATAATAATAAAAATAAACACACATATATATGTATA [CACACA_site8928],6.91
16,AAAGAAAGAAAGAAAAGTACTTAAACTTTTAAAAAT [XGTACX_site8531],6.47
17,ATTTCTTTTGTTATAGTGCATAATATTTATGTACGT,8.59
18,ATATTAATATATAGAAGTACTCACATGTTAATATAA [XGTACX_site7323],7.14
19,TTAAATAAATAAATAACACACATATAAAAATAACGC [CACACA_site3266],7.39

row,Sequence,gcPBM binding intensity (ln)
1,TAACTATCATGTATTACACACAATATTTATTATATA [CACACA_site2701],7.14
2,TATTCAAATTTCCACATACACACCTTGTAGATATAT [CACACA_site281],7.01
3,AAGACAAATTTTACATGTACAAATATATTACATATA [XGTACX_site7060],7.13
4,AAGAAAAAAAGCAACACACGTACCAACACAATTATG [CACACA_site3133],7.15
5,AAACAAAATAAATATGAACACACACCGTTATGCCTT [CACACA_site8347],6.67
6,TATTTGTGGATTTTTACACACATTAATATATATATA [CACACA_site3375],8.41
7,AGGAAAATTATGAATGGTACAGAATATATTAGGAGA [XGTACX_site6282],7.15
8,AATAAGTTATTATTTTGTACACATAAATAATACGTT [XGTACX_site814],6.95
9,GCACTAAAAAAATAAACACACAGATTTATATAATAT [CACACA_site1381],6.83
10,AAGGAACTATAATATACACACATAAGTGTACTTATA [CACACA_site7816],6.92
11,AAAAAAACGTAAAAATGTACTTTTTGTATATAACCT [XGTACX_site7950],6.99
12,ATATATGCATATATTTGTACACATTTTTTTACATAA [XGTACX_site4624],7.25
13,TAAAGCGACATTTGGAAAATATATATCCTAGCATTT [CACACA_negctrl_site327],6.73
14,TATTCGTGCAATAGTAGTACACTTAAAAATTATTCA [XGTACX_site269],7.53
15,AAAATACACAGACACACACACATATAAATAAATATT [CACACA_site7871],7.07
16,ATTCGTTATAAAATATGTACATAAATATATATATAT [XGTACX_site2819],8.9
17,TTATAAAATAAACTTACACACATGAAATATTATATT [CACACA_site1945],6.76
18,ACATAGATGCATATCACACATAATAATATTGTCGTA [CACACA_site4819],7.02
19,GTATATTTTTAAAGGTGTACTTTTTTTTTTTTTTTT [XGTACX_site721],7.7

row,Sequence,gcPBM binding intensity (ln)
1,ATATAAAACTATAATACACACATAAAATATATTATA [CACACA_site6588],7.05
2,TATATTTATTTATTCTGTACTGAAGACAGTTATGTA [XGTACX_site8857],6.95
3,ATAAATATATATATAGTGCATATAAGCCACCTTCAA [GTGCAC_site9628],8.56
4,TATATAATACAACATGCACACATATATATGTGAATC [CACACA_site8794],7.23
5,CGTAATAAAAACAAATGTACATGACCTGGACAGGTT [XGTACX_site6560],7
6,ACATATGAATATAATACACACTTGTATTATTAATAT [CACACA_site8546],6.85
7,AAAAAAAAAAAAAGAGTGCAAACTATGATAATTTAA,9.83
8,TTACCTTTATTGTATGAACACACATAAGCTGATACA [CACACA_site9334],7.17
9,TTAGTTATTAAAAAAAGTACATAAGTAGATATCATC [XGTACX_site8712],7.06
10,TATATATATACATATTGTACATGTGTATATTTTTTT [XGTACX_site361],8.05
11,CCATTTTTTTTATACGCACACGTCATACTTTTAAAA [CACACA_site4988],7.68
12,AAAATTTAATATAATGCACACATAAAAAAAAAAAAA [CACACA_site7923],7.17
13,GAATAATATGGACATACACACATATACATACATATA [CACACA_site2114],7.29
14,TTATTTCATTCTTGAAGTACGTGAAAAATGAAAACA [XGTACX_site4089],7.24
15,TACTAATATGATATATAAATATTGTTATATAATAAT [XGTACX_negctrl_site227],6.9
16,TGAATACAAATTTACGCATGTAATTTCCAGAGGGAG [TGCATGCA_site769],6.93
17,AAAATAAAAGAAAAAAGTACAAAATCAGATTAATTA [XGTACX_site8413],6.75
18,TATAAAATATAATTAGCACACATATATAAAATATAT [CACACA_site9355],6.92
19,AATATATGTAATATATGTACTTAATTATATTTTAAT [XGTACX_site4382],7.05

# — the supplement of paper PMC11417369
